# Assay results as given in PubChem BioAssay AID1347073 (National Center for Advancing Translational Sciences (NCATS), 2019).
# In all, about 45,000 compounds went through this assay and about 200 (0.44%) were called active. Inconclusive results (about 7%) are left out. The call rests on the fitted dose curve; in most records, active means well fitted activation curve with a large enough effect; inconclusive means small, poorly fitted or top-dose-only effect; inactive means no such curve, though single readings can be large or run the other way. This is one part of the list.
# Assay: qHTS of TDP-43 Inhibitors: NCGC Sytravon Library Screen; further: 0% is about no effect; nearly all actives have a fitted effect of over 55% in size
# Conditions: yeast TDP-43 toxicity rescue, BacTiter-Glo growth, 24 h; series mostly up to 46.1 µM; growth rescue (activation): at the top concentration
# In short: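 TDP-43-expressing yeast, pregrown in raffinose, seeded at OD600 0.02 in galactose medium with compound for 24 hr at 30 deg C. Growth read by BacTiter-Glo luminescence, so rescue of toxicity appears as activation.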
row,SMILES,growth rescue (activation)
1,N=C(c1ccc([N+](=O)[O-])cc1)N1CCCCCC1,inactive: 10.1%
2,Cc1ccc(C)c(NC(=O)c2ccc[n+](Cc3ccc([N+](=O)[O-])cc3)c2)c1,inactive: -0.0209%
3,OCCC1CN(Cc2cccn2-c2cccnc2)CCN1C1CCCCC1 (stereo unspecified),inactive: 8.5%
4,N#Cc1c(N2CCOCC2)nc(N)c2c(N)nc3c(c12)CC(CCl)O3 (stereo unspecified),inactive: -74.7%
5,NC(=O)C1CCN(C(=O)CN(c2ccc3c(c2)OCCO3)S(=O)(=O)c2ccccc2)CC1,inactive: -18.3%
6,Cc1nc2c(OCc3cccc(Cl)c3)cccn2c1N(C)CC1CC1,inactive: 7.14%
7,COc1ccc(OC)c(NC(=O)COC(=O)COc2ccc(Nc3ccccc3)cc2)c1,inactive: 9.51%
8,CCCS(=O)(=O)NC(=O)C1(C)CCN(C(=O)COc2ccc(Cl)cc2Cl)C1 (stereo unspecified),inactive: -11.7%
9,Cc1nnc(-c2ccc(Oc3ccc(Cl)cc3)c([N+](=O)[O-])c2)o1,inactive: 19.2%
10,CCN(CC)C(=O)Oc1ccc2c(c1)O/C(=C\c1ccco1)C2=O,inactive: 3.27%
11,O=C(CNC(=O)c1ccc(F)cc1)NCc1ccc(S(=O)(=O)N2CCOCC2)cc1,inactive: 20.8%
12,Cc1ccc(S(=O)(=O)N2CC(C)C(=O)CC2C)cc1 (stereo unspecified),inactive: 3.12%
13,CNC(=O)NC(=O)COC(=O)CCc1nc(=O)c2ccccc2n1C,inactive: -6.17%
14,CC1CCCCC1NC(=O)CN1CCN(Cc2ccccc2Cl)C1=O (stereo unspecified),inactive: -1.76%
15,Cc1c(C(=O)N(Cc2ccc(N(C)C)cc2)Cc2ccco2)oc2cc(Br)ccc12,inactive: 5.26%
16,C=CCC1(NC(C)c2ccccc2)CCCCC1 (stereo unspecified),inactive: -30.4%
17,CN(CC(=O)O)S(=O)(=O)/C=C/c1ccccc1,inactive: -23.4%
18,Cc1ccc(OCC(=O)Nc2ccc3oc(=O)ccc3c2)cc1C,inactive: 6.27%
19,COc1cc(/C=N/NC(=O)Cc2nnc(NC(=O)c3ccccc3)s2)ccc1O,inactive: 6.38%
20,Cc1ccc(OCC(=O)NS(=O)(=O)c2ccccc2)cc1,inactive: 27.9%
21,CCOC(=O)C1=NNC2(c3ccc(C)cc3)C(=O)N(c3ccc(Cl)cc3)C(=O)C12 (stereo unspecified),inactive: 16.3%
22,CN(C)C(=S)Nn1c(-c2ccccc2)nc2ccccc2c1=O,inactive: -14.7%

row,SMILES,growth rescue (activation)
1,CN1CCN(C(=O)CCCN2C(=O)/C(=C/c3cccc(Br)c3)SC2=S)CC1,inactive: -26.2%
2,CN(C)S(=O)(=O)c1cccc(NC(=S)NC2CCCCC2)c1,inactive: 3.95%
3,COC(=O)c1ccc(CSc2nnc(NC(C)C)s2)o1,inactive: -7.74%
4,O=C(N/N=C1\CC(c2ccccc2)Oc2ccccc21)c1ccc(O)cc1 (stereo unspecified),inactive: 11.3%
5,COC(=O)NC(C)N1C(=O)C2C3C=CC(C3)C2C1=O (stereo unspecified),inactive: 7.85%
6,CCOc1ccc(-c2nnc(NC(=O)C3CCCC3)o2)cc1,inactive: 35.2%
7,CCC1C(=O)NCCN1Cc1nc(-c2ccc(C)s2)oc1C (stereo unspecified),inactive: -5.18%
8,C=CCN1C(=O)/C(=C/c2ccc(OC(C)=O)c(OCC)c2[N+](=O)[O-])SC1=S,inactive: -2.45%
9,CN(C)C(=O)CNC(=O)CN1C(=O)NC2(CCCc3sccc32)C1=O (stereo unspecified),inactive: 22.4%
10,CCc1nc2nc(C)c(NS(=O)(=O)c3ccc(CC(C)C)cc3)c(=O)n2[nH]1,inactive: -16.3%
11,COCCn1c(SCc2ccc(OC)c(F)c2)nnc1-c1ccncc1,inactive: -3.96%
12,CN(CC(=O)Nc1ccccc1Cl)C(=O)CSc1ncc(C(F)(F)F)cc1Cl,inactive: 29.3%
13,COc1ccc(CN2C(=O)NC3(CCCC3)C2=O)cc1F,inactive: -4.86%
14,COc1ccccc1N(C)S(=O)(=O)c1ccc(Cl)c(C(=O)NCc2ccco2)c1,inactive: -7.8%
15,COc1ccc(NC(=O)CN2CCCCC2)cc1S(=O)(=O)N1CCCCC1,inactive: 5.49%
16,Cc1cc2c(c(N3CCOCC3)n1)C(=O)OC2,inactive: 3.2%
17,Cc1ccc(C2(C)NC(=O)N(CC(=O)NC(C)c3ccccc3)C2=O)cc1 (stereo unspecified),inactive: -23.6%
18,CN1C(=O)N(C)C(c2cccc([N+](=O)[O-])c2)C2=C1CCCC2=O (stereo unspecified),inactive: 6.67%
19,Fc1ccccc1-c1nc2ccccc2[nH]1,inactive: 3.8%
20,CC(C)(C)c1ccc(C2=NC(C)(C)N(CC(=O)Nc3ccc(F)c(F)c3)C2=O)cc1,inactive: 9.78%
21,COc1ccc(N(CC(=O)Nc2ccccc2F)S(=O)(=O)c2ccc(C)c([N+](=O)[O-])c2)cc1,inactive: 13.2%
22,C=CCn1c(COc2ccccc2)nc2ccccc21,inactive: 23.2%

row,SMILES,growth rescue (activation)
1,CCOC(=O)N/N=C(C)/C=C/c1ccco1,inactive: 7.09%
2,COc1cccc(NC(=O)Cc2c(O)c3ccccc3[nH]c2=O)c1,inactive: -3.38%
3,CCOc1ccc(Nc2nc(NCC(=O)O)nc(N)c2[N+](=O)[O-])cc1,inactive: 7.13%
4,O=C(COc1ncnc2ccccc12)Nc1ccc(Cl)c(S(=O)(=O)N2CCOCC2)c1,inactive: 11.9%
5,Cc1ccc(C)c(CN2CCC(n3nccc3NC(=O)C3CCCC3)CC2)c1,inactive: 16.3%
6,CC(C)C(=O)NC(NCC1CCCO1)C(Cl)(Cl)Cl (stereo unspecified),inactive: -6.4%
7,COc1cc(C(=S)N2CCN(c3cccc(Cl)c3)CC2)ccc1O,inactive: 6.27%
8,COC(=O)c1ccccc1NC(=O)C1(S(=O)(=O)c2ccc(Cl)cc2)CC1,inactive: -1.95%
9,NC(=O)CSc1nc2scc(-c3ccc(Cl)cc3)c2c(=O)n1Cc1ccccc1,inactive: 4.34%
10,CCc1ccc(-c2cn3c(n2)SCC3)cc1,inactive: 6.06%
11,S=c1[nH]nc(C2CC2)n1Cc1ccccc1,inactive: -1.1%
12,O=C(Cc1cn2ccsc2n1)Nc1nc2c(s1)CCCC2,inactive: 28.8%
13,OC[C@@H]1CN(Cc2ccccc2)C[C@H](n2ccc3c(N4CCCC4)ncnc32)O1,inactive: 7.55%
14,COc1ccc([N+](=O)[O-])cc1NC(=O)c1cccnc1,inactive: -5.07%
15,CCOc1ccc(/C=C2\SC(=S)N(NS(=O)(=O)c3ccc(C)cc3)C2=O)cc1OC,inactive: -0.0173%
16,Cc1cc(C)c(S(N)(=O)=O)c(C)c1N(C)S(=O)(=O)c1ccccc1,inactive: 1.23%
17,CCc1ccc(-n2c(SCc3ccccc3C)nc3[nH]ncc3c2=O)cc1,inactive: 27.3%
18,CCOC(=O)c1sc(N)c(C(N)=O)c1C,inactive: 11.5%
19,O=C(Nc1ccc([N+](=O)[O-])cc1Br)c1cccnc1,inactive: 27%
20,Cc1ccc(S(=O)(=O)NN2C(=O)c3ccccc3NC2c2ccco2)cc1 (stereo unspecified),inactive: -5.14%
21,Cc1ccc(CN2C(=O)CCC2C(=O)NC(C)C)cc1 (stereo unspecified),inactive: 15.4%
22,CCOC(=O)CNC(=O)CSc1ncccc1-c1nc2ccccc2[nH]1,inactive: -1.82%

row,SMILES,growth rescue (activation)
1,CON(C)S(=O)(=O)c1ccc2c(c1)N(Cc1ccc(C)cc1)C(=O)C1CCCN21 (stereo unspecified),inactive: 0.395%
2,COc1cc(NC(=O)CN2C(=O)NC(C)(c3ccc4ccccc4c3)C2=O)c(C)cc1[N+](=O)[O-] (stereo unspecified),inactive: 9.65%
3,O=C(COC(=O)c1cnccn1)c1ccc(OC(=O)c2ccccc2)cc1,inactive: 0.723%
4,COc1ccc(NC(=O)c2cc(S(=O)(=O)N3CCOCC3)cs2)cc1,inactive: 6.57%
5,COc1ccc(NC(=O)Cc2ccsc2)c(OC)c1,inactive: 18%
6,O=C(COC(=O)c1cc(S(=O)(=O)Nc2ccccc2Cl)ccc1O)Nc1ccc(F)c(F)c1F,inactive: 7.94%
7,COc1cc2ccccc2cc1C(=O)Nc1ccc2oc(-c3ccc(Cl)cc3)nc2c1,inactive: 9.29%
8,O=C(O)CSCC(=O)Nc1ccc(Cl)cc1C(F)(F)F,inactive: 5.17%
9,COc1ccc(N(CC(=O)NCc2ccccc2OC)S(=O)(=O)c2ccccc2)cc1,inactive: -14.4%
10,COc1ccc2c(c1OC)C(=O)N1c3ccccc3C(=O)N(c3ccccc3)C21 (stereo unspecified),inactive: 34.5%
11,COCCCNC(=S)N1CCCC(c2nc3cc(C)c(C)cc3[nH]2)C1 (stereo unspecified),inactive: 8.91%
12,COCCCC1CCN(C(=O)C2CCC(=O)N(Cc3ccccc3F)C2)CC1 (stereo unspecified),inactive: 19%
13,Cc1cc(=O)n2c(sc3ccccc32)c1C#N,inactive: -30.6%
14,COc1ccc(F)c(CN(C)CC2CCCN(CCc3ccc(F)cc3)C2)c1 (stereo unspecified),inactive: 7.23%
15,O=c1c(Cl)c(N2CCN(c3ccc(F)cc3)CC2)cnn1-c1nc2ccccc2s1,inactive: 9.6%
16,O=C(Nc1cccc(S(=O)(=O)Nc2ccccc2F)c1)c1ccco1,inactive: 22%
17,Cc1cc(C)n(-c2ccc(C(=O)Nc3cc(S(=O)(=O)N(C)C)ccc3Cl)cc2)n1,inactive: 14.9%
18,COc1cc(CN2C[C@@H](CO)O[C@@H](n3cnc4c(N5CCOCC5)ncnc43)C2)cc(OC)c1OC,inactive: 1.98%
19,O=C1CSC(=S)N1/N=C/c1c(F)cccc1F,inactive: 35.2%
20,Cc1cccc(Nc2nc(NCc3ccco3)nc(N)c2[N+](=O)[O-])c1,inactive: 12.5%
21,O=C(N/N=C/c1ccncc1)c1ccc(NC(=O)c2cccc(Cl)c2)cc1,inactive: 11.3%
22,COCCNC(=S)N1CCCC(CO)C1 (stereo unspecified),inactive: 14.1%

row,SMILES,growth rescue (activation)
1,O=C(COc1ccc(S(=O)(=O)NC2CCCCC2)cc1)NC1CCCC1,inactive: -9.28%
2,COc1ccc(NC(=O)c2c(F)cccc2Cl)cc1S(=O)(=O)N1CCOCC1,inactive: 5.14%
3,NS(=O)(=O)c1ccc(NC(=S)Nc2ccc(C(=O)N3CCCCC3)cc2)cc1,inactive: 18.5%
4,COc1ccc(CC(=O)Nc2ccc(S(=O)(=O)N3CCCC3)cc2)cc1OC,inactive: 23%
5,CSc1ccc(CN2CCN(Cc3ccccc3)C(CCO)C2)cc1 (stereo unspecified),inactive: 12.3%
6,CCOc1ccc(/C=C(/C#N)c2nnc(N3CCOCC3)n2-c2ccccc2)cc1OC,inactive: -4.02%
7,CCN1C(=O)C(CC(=O)Nc2ccc(OC)cc2)N(Cc2ccc3c(c2)OCO3)C1=S (stereo unspecified),inactive: 25.5%
8,C=CCNC(=O)NC(=O)CSc1nc2cc([N+](=O)[O-])ccc2n1-c1cccc(C(F)(F)F)c1,inactive: 4.11%
9,Cc1c(NS(=O)(=O)c2ccc(Cl)c(C(=O)OC(C)C(=O)N3CCOCC3)c2)c(=O)n(-c2ccccc2)n1C (stereo unspecified),inactive: 3.92%
10,Cc1ccccc1C(=O)NC1CCN(C(=O)Nc2ccc(F)cc2)CC1,inactive: -6.52%
11,CCCCCn1nc(C(=O)OCC(=O)c2c(N)n(C)c(=O)n(C)c2=O)c2ccccc2c1=O,inactive: 7.31%
12,O=C(CSc1nnnn1-c1ccc(O)cc1)NC1CCCCC1,inactive: 15.8%
13,O=C(COC(=O)c1cc(Br)ccc1O)c1ccc(F)cc1,inactive: 14.5%
14,CC1(C(=O)NS(=O)(=O)Cc2ccccc2C(F)(F)F)CCN1C(=O)c1cccc(F)c1 (stereo unspecified),inactive: 4.87%
15,COCCN(C(=O)c1ccccc1F)c1c(N)n(Cc2ccccc2)c(=O)[nH]c1=O,inactive: 7.52%
16,Cc1nc(C)c(C(=O)OCC(=O)N(C)c2ccccc2)s1,inactive: 8.38%
17,CN(Cc1cc(=O)n2ccsc2n1)Cc1nc2ccccc2c(=O)[nH]1,inactive: 10.9%
18,CSc1ccc(/C=C/c2cc(=O)c3ccccc3[nH]2)cc1,inactive: -12.6%
